Measured values from the supplement of paper PMC12217912.
The other results are listed elsewhere or left out. Sequences were assembled here from the parent chain. Inactive controls read about 0.05.

B1: TEV protease; numbered along this chain (parent)
chain: MGESLFKGPRDYNPISSSICHLTNESDGHTTSLYGIGFGPFIITNKHLFRRNNGTLVVQSLHGVFKVKDTTTLQQHLVDGRDMIIIRMPKDFPPFPQKLKFREPQREERICLVTTNFQTKSMSSMVSDTSCTFPSGDGIFWKHWIQTKDGQCGSPLVSTRDGFIVGIHSASNFTNTNNYFTSVPKNFMELLTNQEAQQWVSGWRLNADSVLWGGHKVFMVKPEEPFQPVKEATQL

Variants of: B1
Experiment: raw area under fraction-flipped curve 0-4 h after induction (AUC4h, not background-subtracted), DNA-recorder readout of cleavage of the substrate (dimensionless); higher = more cleavage of the substrate by the protease variant
Conditions: temperature: 34 °C; time window: 0-4 h after rhamnose induction
Experimental: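 In vivo DNA recorder in E. coli TOP10(DE3) ΔrhaA at 34 °C. Each TEVp single-site mutant (parent TEVp 0) is paired with a single-site variant of the 7-mer TEVs (canonical ENLYFQ|S). The substrate sits between flexible linkers in a Bxb1-sfGFP-TEVs-SsrA fusion, so cleavage stabilises Bxb1 and speeds flipping of a recombination array, read by NGS. The value is the raw area under the fraction-flipped curve over 0-4 h after rhamnose induction (AUC4h), with ≥20 reads per time point. It is not background-subtracted; inactive controls average about 0.047.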
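Note: Bxb1 expression induced with 0.2% (w/v) L-rhamnose at OD600 near 0.5, cultures sampled hourly, flipped fraction per protease–substrate barcode pair counted by paired-end Illumina sequencing.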

Row | Variant | area with substrate ANLYFQS | area with substrate FNLYFQS | area with substrate GNLYFQS | area with substrate HNLYFQS | area with substrate NNLYFQS | area with substrate PNLYFQS | area with substrate WNLYFQS | area with substrate YNLYFQS | area with substrate VNLYFQS | area with substrate INLYFQS
1 | N177Y | 0.0769 | 0.079 | 0.0807 | 0.074 | 0.059 | 0.0575 | 0.0685 | 0.0569 |  | 
2 | T119E | 0.0758 | 0.0402 | 0.0638 |  | 0.0527 |  |  |  | 0.0745 | 
3 | T119M | 0.0605 |  | 0.0086 |  |  |  | 0.0694 |  |  | 0.0648
4 | T119F | 0.0662 |  |  | 0.0649 | 0.132 | 0.0704 |  | 0.0628 |  | 
5 | T114H | 0.0552 | 0.0559 |  |  |  | 0.0727 |  | 0.0591 | 0.0382 | 
6 | V57R | 0.0621 |  |  | 0.0717 |  | 0.086 |  | 0.0698 | 0.0732 | 
7 | P134T | 0.0704 |  | 0.0638 |  | 0.0739 | 0.0522 |  |  |  | 0.0534
8 | I85L | 0.0751 |  |  | 0.0634 |  | 0.0812 | 0.057 |  | 0.078 | 0.0696
9 | V165C | 0.0839 | 0.0525 | 0.0301 |  |  |  | 0.0875 | 0.0699 |  | 0.0592
10 | V165N | 0.0491 | 0.0424 |  | 0.0538 | 0.0296 | 0.0482 | 0.0264 | 0.0143 |  | 0.0488
11 | W141H | 0.0591 | 0.0537 | 0.0658 | 0.0315 |  | 0.0611 | 0.0607 |  | 0.0556 | 0.0913
12 | I110E | 0.0509 |  | 0.0506 |  | 0.0536 |  | 0.0505 | 0.0507 |  | 
13 | I145R | 0.0571 |  |  |  | 0.0637 |  | 0.0426 | 0.0411 |  | 
14 | I145E | 0.0608 |  |  | 0.0658 |  | 0.0632 | 0.0459 |  | 0.0534 | 
15 | T174Y | 0.0412 |  | 0.0674 | 0.0688 |  | 0.0776 | 0.0544 | 0.05 |  | 
16 | T174L | 0.0388 |  |  |  | 0.0573 | 0.0586 |  |  |  | 0.051
17 | T174A | 0.0658 | 0.0656 | 0.0679 |  | 0.0717 | 0.0754 | 0.0652 |  |  | 0.0638
18 | K46N | 0.0675 |  | 0.0507 | 0.0876 |  |  | 0.0491 | 0.0661 |  | 
19 | S121T | 0.0627 |  |  |  |  |  | 0.0633 |  |  | 0.0722

Row | Variant | area with substrate ANLYFQS | area with substrate FNLYFQS | area with substrate GNLYFQS | area with substrate HNLYFQS | area with substrate NNLYFQS | area with substrate PNLYFQS | area with substrate WNLYFQS | area with substrate YNLYFQS | area with substrate VNLYFQS | area with substrate INLYFQS
20 | Q74S | 0.0585 | 0.0797 |  |  |  | 0.0683 | 0.0625 | 0.0707 | 0.0748 | 0.046
21 | F95Y | 0.0484 |  |  | 0.0667 |  |  | 0.0587 |  |  | 
22 | F95M | 0.0722 | 0.0653 | 0.0693 |  |  |  |  | 0.0821 |  | 
23 | F117L | 0.0949 |  | 0.0737 | 0.0556 | 0.0665 |  | 0.0592 | 0.071 | 0.075 | 0.0621
24 | F38R | 0.0522 | 0.0322 |  | 0.0496 |  | 0.0641 | 0.0529 | 0.0543 | 0.0472 | 0.0549
25 | Y179M | 0.0559 |  |  | 0.0555 |  | 0.0376 |  |  | 0.0244 | 
26 | F133G | 0.0427 | 0.0636 | 0.0735 | 0.0673 |  | 0.0699 | 0.0534 | 0.0424 | 0.101 | 
27 | T55Q | 0.0799 | 0.0619 | 0.0594 | 0.0565 | 0.0732 | 0.0659 | 0.0567 |  | 0.0709 | 0.0616
28 | T55V | 0.0492 | 0.0493 | 0.0746 | 0.0798 | 0.0661 | 0.0635 | 0.0506 | 0.0622 | 0.0763 | 
29 | V58P | 0.0298 |  |  |  |  | 0.0264 |  |  |  | 
30 | L77K | 0.0479 | 0.0569 |  | 0.0528 | 0.0535 |  | 0.0565 |  | 0.0554 | 
31 | L77P | 0.0625 |  |  | 0.0623 | 0.079 |  | 0.0601 |  |  | 0.0799
32 | V183K | 0.0533 |  | 0.0533 | 0.062 | 0.071 | 0.0619 | 0.0506 | 0.0438 |  | 0.0512
33 | S60T | 0.0838 | 0.0987 |  |  | 0.0517 | 0.0682 | 0.0679 | 0.0707 |  | 0.0783
34 | T115G | 0.0702 |  | 0.108 |  |  |  |  |  | 0.0894 | 0.0645
35 | T115M | 0.0399 | 0.0547 | 0.0764 | 0.0605 | 0.0644 | 0.0484 | 0.0505 | 0.0535 | 0.074 | 0.0452
36 | G166C | 0.0537 | 0.0511 |  | 0.045 | 0.0556 | 0.0534 | 0.0478 | 0.039 | 0.0512 | 0.0619
37 | I86N | 0.0363 |  |  |  |  |  |  |  |  | 

Same assay, conditions: temperature: 34 °C; time window: 0-4 h after rhamnose induction

Row | Variant | area with substrate KNLYFQS | area with substrate QNLYFQS | area with substrate LNLYFQS | area with substrate RNLYFQS | area with substrate TNLYFQS | area with substrate SNLYFQS | area with substrate MNLYFQS | area with substrate DNLYFQS
38 | T119M | 0.0665 | 0.0482 |  |  |  |  |  | 
39 | T119F | 0.0748 |  | 0.0735 | 0.0671 | 0.0716 |  |  | 
40 | T114H |  |  | 0.0276 |  | 0.0587 |  |  | 
41 | V57R | 0.0596 |  | 0.0771 |  | 0.0445 | 0.0631 |  | 
42 | P134T |  |  | 0.0591 |  |  | 0.0722 | 0.0759 | 
43 | I85L | 0.0743 |  |  | 0.0615 | 0.0715 |  | 0.0673 | 0.107
44 | V165C |  |  | 0.062 |  | 0.0636 |  | 0.0657 | 
45 | V165N |  |  |  |  | 0.031 |  | 0.028 | 
46 | W141H | 0.0683 | 0.066 | 0.0649 |  |  |  | 0.0513 | 
47 | I110E |  |  |  | 0.0561 |  |  |  | 
48 | I145R | 0.0588 |  |  | 0.035 | 0.0535 | 0.0574 | 0.0547 | 
49 | I145E |  |  |  |  |  | 0.0548 |  | 
50 | T174Y | 0.0683 |  |  |  | 0.066 | 0.0538 |  | 
51 | T174A | 0.102 |  |  |  |  |  |  | 0.0775
52 | K46N | 0.0607 |  |  |  | 0.0513 | 0.0589 | 0.0587 | 
53 | S121T |  |  | 0.0738 |  |  |  |  | 

Row | Variant | area with substrate KNLYFQS | area with substrate QNLYFQS | area with substrate LNLYFQS | area with substrate RNLYFQS | area with substrate TNLYFQS | area with substrate SNLYFQS | area with substrate MNLYFQS | area with substrate DNLYFQS
54 | Q74S |  |  | 0.102 | 0.0498 | 0.0584 | 0.0729 |  | 0.0892
55 | F95Y |  |  |  | 0.0582 | 0.0742 | 0.0684 |  | 
56 | F95M |  | 0.0625 | 0.0254 |  |  |  |  | 
57 | F117L | 0.136 |  |  |  | 0.0597 | 0.0671 |  | 
58 | F38R | 0.0623 |  | 0.0715 |  | 0.0617 | 0.0625 | 0.0705 | 
59 | Y179M | 0.0646 |  | 0.0648 |  | 0.0546 | 0.0681 |  | 
60 | F133G |  |  | 0.0734 |  | 0.101 | 0.0838 |  | 
61 | T55Q | 0.0645 |  | 0.0534 |  | 0.0743 | 0.0397 | 0.0741 | 0.0521
62 | T55V | 0.0104 |  | 0.053 | 0.0784 | 0.064 | 0.0654 | 0.1 | 
63 | L77K | 0.0591 |  | 0.053 | 0.0426 | 0.0484 |  | 0.0563 | 
64 | L77P | 0.069 |  | 0.0638 |  | 0.0616 |  |  | 
65 | V183K |  |  |  |  | 0.0517 | 0.0564 |  | 
66 | S60T | 0.0528 | 0.103 |  |  | 0.0794 | 0.0773 | 0.0798 | 
67 | T115M | 0.075 |  | 0.0715 | 0.0248 | 0.0838 |  | 0.0567 | 
68 | G166C | 0.0491 | 0.0398 | 0.037 | 0.0636 | 0.0475 |  | 0.0573 | 
